This note sets out measurements from the RNAGym collection of RNA variant scans (doi:10.7554/elife.90254).

First the molecules themselves.
B1: LINE1-mini (parent)
chain: GGCAGAGCUCAACACAGCGUGGCAAAGUGGCUGUGGCUAGACUGCC

The source gives no read counts; variants with many changes may rest on few reads.

This series covers variants of B1. Description: self-cleavage, relative activity (ratio to wild type); higher = more cleavage; in vitro, sequencing; the parent is a self-cleaving ribozyme.
Turning to C18U A24U A25G, the self-cleavage is 0.19.

Take C18A G22A U34C: the self-cleavage was 0.04.

As for C18G U43C C46G, the self-cleavage stood at 0.02.

As for C18A G19A G33C, the self-cleavage turned out to be 0.02.

For C18G G22U G29A G40U, the self-cleavage worked out at 0.15.

As for C18U G22C G30A, the self-cleavage amounted to 0.95.

Turning to C18A G33C G36C, the self-cleavage was found to be 0.01.

With C18U U32G U43G, the self-cleavage is 0.05.

Take C18A U20G U38C: the self-cleavage worked out at 0.11.

Turning to C18G C23G G30U U43A G44U, the self-cleavage turned out to be 0.01.

As to C18G G27U G40C, the self-cleavage was 0.04.

Turning to C18G C23U G36C C37G, the self-cleavage is 0.05.

As for C18A U28A U43A, the self-cleavage was determined as 0.01.

Take C18G G30U U38C: the self-cleavage amounted to 0.07.

On to C18G C23A G40C, for which the self-cleavage is 0.03.

C18G G27C G33A C46G: the self-cleavage is 0.04.

On to C18A G35A A39U C45U, for which the self-cleavage worked out at 0.02.

Regarding C18G U34G C45A, the self-cleavage amounted to 0.04.

Take C18A G19U C23A: the self-cleavage was found to be 0.65.

Regarding C18U C23G C45A, the self-cleavage was 1.25.

Take C18A U28G C31G A41U U43C: the self-cleavage amounted to 0.03.

In the case of C18A G29U C46A, the self-cleavage stood at 0.19.

Regarding C18A G19U C31A U32G, the self-cleavage was 0.05.

Turning to C18U G27A C45A, the self-cleavage came out at 0.33.

As to C18U C23A U28G, the self-cleavage was 1.18.

Consider C18A G30A U38C, for which the self-cleavage was 0.44.

Regarding C18U G21C G35U, the self-cleavage was found to be 1.01.

With C18G C23U A25U, the self-cleavage was determined as 0.19.

For C18G C31A A39C G40C, the self-cleavage is 0.01.

For the variant C18G G33A U34G G44U, the self-cleavage was determined as 0.05.

Consider C18U G35U C42A, for which the self-cleavage is 0.04.

As for C18U C37A A39U A41C C46A, the self-cleavage was found to be 0.05.

As to C18G A26C G33C, the self-cleavage was 0.18.

C18U A24U G36C C37U: the self-cleavage amounted to 0.03.

Turning to C18A G21U A41C, the self-cleavage turned out to be 0.13.

With C18G G19C G30U, the self-cleavage is 0.7.

For the variant C18U G33U G35A C42G, the self-cleavage came out at 0.01.

In the case of C18U C23G A26U G35U, the self-cleavage is 0.03.

As to C18U A24C G29C, the self-cleavage was found to be 0.18.

Regarding C18U G30C C46A, the self-cleavage was found to be 0.19.

As for C18U A25U U38A, the self-cleavage was determined as 1.17.

Consider C18U A25U U38G, for which the self-cleavage worked out at 0.

Regarding C18G G19C G27C G29A A39C, the self-cleavage came to 0.39.

For the variant C18A G21U C45A, the self-cleavage was 0.44.

As for C18A G36C G44C, the self-cleavage is 0.02.

On to C18G G19A U28G, for which the self-cleavage came out at 1.39.

Turning to C18U U38C G44U, the self-cleavage was found to be 0.03.

As for C18G G27C U28C G33A, the self-cleavage stood at 0.01.

As for C18U G29U U38C U43G, the self-cleavage stood at 2.11.

For the variant C18U A26U G44C, the self-cleavage was found to be 0.2.

As to C18U G27A U43G, the self-cleavage amounted to 0.

Take C18U G44U C45A C46A: the self-cleavage was 0.08.

Turning to C18U G21U U28C G35A A39C, the self-cleavage came out at 0.1.

Regarding C18G G36A U38A, the self-cleavage is 0.13.

As to C18G U34A A39U, the self-cleavage was determined as 0.01.

As for C18G C23A G36C G40C, the self-cleavage amounted to 0.01.

Regarding C18U A24U G35U, the self-cleavage turned out to be 0.13.

As to C18U A26C U32A C37U, the self-cleavage is 0.01.

In the case of C18A G21C G22A G35U, the self-cleavage was determined as 0.09.

Turning to C18G U28A G29C C42U G44A, the self-cleavage amounted to 0.04.

Turning to C18G A24G G35A C46A, the self-cleavage was 0.04.

Take C18A G33C G36C C45G: the self-cleavage amounted to 0.02.

C18G G27U U34C C42A: the self-cleavage amounted to 0.07.

Regarding C18U C31A G33A, the self-cleavage stood at 0.05.

As for C18U G36U C46A, the self-cleavage was 0.01.

C18U A25C G27A: the self-cleavage turned out to be 0.47.

With C18U U34A G36C, the self-cleavage worked out at 0.03.

Take C18G A25U A41G: the self-cleavage amounted to 0.19.

On to C18U G30U G40C C45U, for which the self-cleavage is 0.01.

Turning to C18A G21A U28A, the self-cleavage was found to be 0.95.

Turning to C18G A25U U32A U38G A39U, the self-cleavage came out at 0.08.

Regarding C18G G22U G29U, the self-cleavage worked out at 1.72.

For the variant C18A G19C C31G U43A, the self-cleavage came to 0.02.

With C18U A25U C37G, the self-cleavage amounted to 0.02.

As for C18U C23U G29U, the self-cleavage came to 1.46.

For C18U G19A A26U, the self-cleavage was determined as 0.52.

As for C18U G29A G35U C42A, the self-cleavage worked out at 0.05.

For the variant C18G A24C C45A, the self-cleavage is 0.

Turning to C18U G22U A25U A26U C45A, the self-cleavage was 0.01.

Turning to C18U G36A C37U C46G, the self-cleavage was found to be 0.06.

For the variant C18G G27A G29C, the self-cleavage stood at 0.71.

With C18G A39U U43G, the self-cleavage worked out at 0.01.

In the case of C18U A25U U28G C31A G36U C42U, the self-cleavage amounted to 0.01.

For the variant C18U A26U A41C, the self-cleavage stood at 0.09.

In the case of C18A U20C G22U G44U, the self-cleavage worked out at 0.06.

For C18A G33A G36A U43C, the self-cleavage amounted to 0.02.

Regarding C18U G30C G33C, the self-cleavage turned out to be 0.03.

As for C18U G21U G29U G30C C31A U32C G44C, the self-cleavage was determined as 0.04.

Regarding C18G G29U C42U, the self-cleavage amounted to 0.14.

Consider C18U G21U G27C A39U C46G, for which the self-cleavage is 0.07.

As for C18G U34C G35C C37G, the self-cleavage came out at 0.02.

As for C18A U20C G21A C45A, the self-cleavage is 1.34.

For the variant C18U G19U G29C C45G, the self-cleavage amounted to 0.08.

C18U G22C C42U: the self-cleavage worked out at 0.15.

As for C18A G19U A26U G35C C42G, the self-cleavage stood at 0.01.

On to C18G G19U A39U, for which the self-cleavage was 0.35.

On to C18A G22U A41U, for which the self-cleavage came out at 0.38.

Turning to C18U G30C G36U G40U G44C, the self-cleavage amounted to 0.07.

On to C18A U20A A25G G33A, for which the self-cleavage came to 0.05.

With C18U C23A A25G U28C, the self-cleavage was found to be 0.23.

As to C18U G40U G44U, the self-cleavage turned out to be 0.02.

Turning to C18A G19U A26G G36A A41C, the self-cleavage was determined as 0.04.

Take C18G U20C A26C: the self-cleavage amounted to 0.18.

Consider C18U U20G U32A, for which the self-cleavage worked out at 0.02.

In the case of C18G U28A G29C G36A, the self-cleavage turned out to be 0.06.

With C18G G30C G40U, the self-cleavage was found to be 0.2.

For the variant C18U G30U C46U, the self-cleavage is 0.22.

On to C18U C31A G35A, for which the self-cleavage was 0.03.

With C18A U20A G22C C46U, the self-cleavage stood at 0.16.

In the case of C18U U20C A26U U28C, the self-cleavage turned out to be 0.25.

As for C18U G22C A24U A39C, the self-cleavage was 0.21.

Regarding G19A A24C U28A, the self-cleavage came out at 0.1.

C18U U28C C31A G44C C46U: the self-cleavage was 0.02.

With C18U G19C U34C C46U, the self-cleavage stood at 0.06.

Take C18G A39G C42A: the self-cleavage was found to be 0.02.

Regarding C18A G40C C45U, the self-cleavage turned out to be 0.02.

With G19A A24U A39G A41C C42G, the self-cleavage amounted to 0.07.

Take C18G G19C U28A C46U: the self-cleavage turned out to be 0.88.

As to C18A G21U U43A, the self-cleavage is 0.04.

Turning to C18A U20C G35C G40A, the self-cleavage was found to be 0.07.

C18U A26U G27U U34C: the self-cleavage was found to be 0.02.

Regarding C18U A39G G44U, the self-cleavage is 0.01.

Take C18U U20A G29U: the self-cleavage is 1.09.

As to C18U G29C C31U, the self-cleavage stood at 0.12.

As to C18A G30C C46A, the self-cleavage was found to be 2.6.

In the case of C18G G33U C46G, the self-cleavage was 0.08.

On to C18G G22C G29A C37U, for which the self-cleavage was 0.26.

C18A G35C A39C: the self-cleavage was determined as 0.05.

Take C18A U20C G22U: the self-cleavage worked out at 0.57.

For C18G G19C U20C G30A, the self-cleavage was determined as 0.09.

C18U A26G A39U: the self-cleavage is 0.08.

For the variant C18U G19C A39G, the self-cleavage turned out to be 0.06.

With C18G G19U U38C, the self-cleavage turned out to be 0.17.

For the variant C18U U28C C37G, the self-cleavage was 0.02.

Consider C18A G27C C42U, for which the self-cleavage turned out to be 0.05.

As to C18A U20C A25G G29A G30A G44U, the self-cleavage came out at 0.01.

C18A G22U A26U U28G G36C: the self-cleavage was determined as 0.03.

For C18G G33U A41C, the self-cleavage came out at 0.09.

For the variant C18U U28A G33U U43C, the self-cleavage was 0.02.

Consider C18U U20A U28G G44U, for which the self-cleavage worked out at 0.08.

Turning to C18G U34G G36A, the self-cleavage stood at 0.07.

As to C18U U32C U43C, the self-cleavage was determined as 0.03.

As for C18U C23A G29U, the self-cleavage is 0.9.

Consider C18G C23U G27A U32C C46U, for which the self-cleavage came to 0.03.

C18U G33A C42U: the self-cleavage was 0.03.

For C18A G21C A39G, the self-cleavage worked out at 0.03.

Regarding C18U U32G G35A A39U, the self-cleavage was determined as 0.05.

For the variant C18G G22A C45G C46U, the self-cleavage is 0.1.

As for C18U U20G C37G, the self-cleavage came to 0.01.

As for C18G A24C U38A, the self-cleavage is 0.03.

With C18U G36C C42U, the self-cleavage was found to be 0.05.

Regarding C18A U20G C37U, the self-cleavage was determined as 0.02.

Turning to C18A G19U A26C, the self-cleavage amounted to 0.01.

With C18G G21C C23G G33U, the self-cleavage amounted to 0.07.

On to C18G G19A G33C C46A, for which the self-cleavage was 0.01.

Regarding C18U A24G A26G, the self-cleavage is 0.2.

C18U G29U U34G G36A: the self-cleavage is 0.05.

Consider C18A G27U U28A G40U, for which the self-cleavage was 0.06.

In the case of C18U G27C U34C A39U C42G, the self-cleavage stood at 0.02.

Turning to C18U U28A G40U, the self-cleavage was found to be 0.83.

As for C18U G22U C42G, the self-cleavage was 0.07.

With C18U C37U C42G, the self-cleavage was determined as 0.04.

Take C18G C23U C45U: the self-cleavage worked out at 0.08.

C18G A24C U28G: the self-cleavage was found to be 0.09.

In the case of C18G U32G C42A C46A, the self-cleavage is 0.03.

As to C18U U34G C45U, the self-cleavage worked out at 0.05.

As for C18G U28A U34A G44A, the self-cleavage came to 0.21.
